Laboratory results from patent US12673111B2, “Bifunctional degraders of galactose-deficient immunoglobulins” (priority 2023, dated 2026).

How the values were obtained:
[1] = tested on: total IgA conjugated to Alexa Fluor 594; test: ASGPR-dependent uptake assay (total IgA endocytosis) in HEK293 (+ASGPR) cells; type: cell-based, human
Method: (§1) A HEK293 bioluminescent cell-based assay was used to assess ASGPR-dependent uptake by cells in vitro.
(§2) Harvest HEK293 (+ASGPR) cells—phosphate-buffered saline rinse 2×.
(§3) Set cells in 40 k/100 μl/well in DMEM+200 μg/mL G418+10% Fetal Bovine Serum grow plus 1% P/S overnight.
(§4) Dilute ⅓ 100 optimum+50 μl sample for six concentrations.
(§5) Add 90 μl dg-IgA/IgA mAb or 0 Ab for controls.
(§6) Add 10 μl of step-diluted compounds to the first nine columns and 10 μl optimum to the remaining columns.
(§7) Incubate overnight—Incucyte read @ four hours, twelve hours, and twenty hours in red channel.
(§8) In vitro cellular internalization of dg-IgA with AGN03A.
(§9) HEK293 cells transfected with ASGPR1 were used to measure endocytosis of 1 μg/mL dg-IgA and total IgA conjugated to Alexa Fluor 594. MFI=mean fluorescence intensity, S/N=signal-to-noise ratio.

exogenous dg-IgA = molecular target: T1, exogenous dg-IgA (UniProt P01876+P34927); test: Degradation (clearance) of exogenous dg-IgA in mice; type: in vivo; conditions: wild-type mice
T1 construct: prepared from pooled human serum IgA in three enzymatic steps; from tissue; host or cells: pooled human serum IgA, deglycosylated; injected i.v. into wild-type mice
Method: FIGS. 21 and 22 are line graphs showing the results of the administration of agent to mice. […] The dosage was AGN03A intravenous, 200 μg/mouse=8 mpk dg-IgA intravenous, 100 μg=4 mpk (five times higher than the patient's median galactose-deficient IgA1 level).
AGN03A achieves robust degradation of exogenous dg-IgA in mice. […] Results were consistent with the AGN03A mechanism of action. AGN03A depleted exogenous dg-IgA in wild-type mice to 58% of the area under the curve of control at a 2:1 (drug: target) ratio after sequential intravenous (IV) administration. […] AGN03A rapidly and robustly degrades an enzymatically deglycosylated form of human IgA administered to mice.

[2] = molecular target: T2, dg-IgA conjugated to Alexa Fluor 594 (Homo sapiens, UniProt P01876+P07306); test: ASGPR-dependent uptake assay (dg-IgA endocytosis) in HEK293 (+ASGPR) cells; type: cell-based
T2 construct: prepared from pooled human serum IgA in three enzymatic steps; from tissue; host or cells: pooled human serum IgA, deglycosylated and dye-labelled; added to HEK293 cells transfected with human ASGPR1
Method: as §1, §2, §3, §4
Column 1-6:1.1 ug/mL dg-IgA-594-5 ml (5.5 μL dg-IgA).
as §5, §6, §7, §8, §9

[3] = Assay #1, 1 μg/ml dg-IgA (A594)
[4] = Assay #2, 1 μg/ml dg-IgA (A594)
[5] = Assay #3, 1 μg/ml dg-IgA (A594)

T2 sequence (P01876 1-353 isoform P01876-1): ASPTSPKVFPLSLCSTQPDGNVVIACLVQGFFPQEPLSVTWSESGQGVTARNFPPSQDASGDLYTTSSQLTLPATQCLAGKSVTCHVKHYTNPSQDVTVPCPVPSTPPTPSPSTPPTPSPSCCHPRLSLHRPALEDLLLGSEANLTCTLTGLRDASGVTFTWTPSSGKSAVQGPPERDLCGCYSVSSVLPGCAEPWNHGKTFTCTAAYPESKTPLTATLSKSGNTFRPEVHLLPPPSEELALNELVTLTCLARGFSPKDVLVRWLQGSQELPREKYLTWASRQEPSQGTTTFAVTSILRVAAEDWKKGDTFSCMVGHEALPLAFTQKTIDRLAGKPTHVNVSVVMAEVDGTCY
T2 sequence (P07306 whole entry): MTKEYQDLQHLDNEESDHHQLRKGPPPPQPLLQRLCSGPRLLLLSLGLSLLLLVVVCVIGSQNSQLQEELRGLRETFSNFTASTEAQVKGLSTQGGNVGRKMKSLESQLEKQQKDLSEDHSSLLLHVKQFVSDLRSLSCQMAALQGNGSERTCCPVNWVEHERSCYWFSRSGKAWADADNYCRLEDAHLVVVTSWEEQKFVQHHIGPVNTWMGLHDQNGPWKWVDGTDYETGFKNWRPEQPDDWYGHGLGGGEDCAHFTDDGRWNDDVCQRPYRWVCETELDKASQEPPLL
T1 sequence (P01876 1-353 isoform P01876-1): as the sequence (P01876 1-353 isoform P01876-1) above
T1 sequence (P34927 whole entry): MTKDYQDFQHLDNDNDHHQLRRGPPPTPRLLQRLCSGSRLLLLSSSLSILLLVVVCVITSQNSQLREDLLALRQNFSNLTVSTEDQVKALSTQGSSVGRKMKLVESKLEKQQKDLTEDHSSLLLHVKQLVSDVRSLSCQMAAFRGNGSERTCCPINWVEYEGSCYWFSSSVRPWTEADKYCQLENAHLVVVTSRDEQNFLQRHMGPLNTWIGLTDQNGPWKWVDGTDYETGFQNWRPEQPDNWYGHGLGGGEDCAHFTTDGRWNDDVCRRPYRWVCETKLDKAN
T1 sequence (P24721 whole entry partner): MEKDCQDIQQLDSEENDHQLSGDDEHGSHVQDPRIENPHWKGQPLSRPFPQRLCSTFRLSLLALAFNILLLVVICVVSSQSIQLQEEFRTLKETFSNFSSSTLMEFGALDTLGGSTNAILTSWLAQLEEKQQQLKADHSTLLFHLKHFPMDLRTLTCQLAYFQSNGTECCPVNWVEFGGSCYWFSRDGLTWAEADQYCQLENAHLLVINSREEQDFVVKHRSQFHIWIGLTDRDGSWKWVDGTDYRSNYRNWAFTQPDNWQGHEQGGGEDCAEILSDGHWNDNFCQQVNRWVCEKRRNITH

B1: ABT030 (antibody)
heavy: ELQLQESGPGLVKPSQSLSLTCSVTGYSIRSNYWGWIRKFPGNKMEWMGYITYSGGTYYNPSLKSRISITRDTSKNQFFLQLTSVTTEDTATYYCTRWGDWYFDFWGPGTKVTVSPASTKGPSVFPLAPSSKSTSGGTAALGCLVKDYFPEPVTVSWNSGALTSGVHTFPAVLQSSGLYSLSSVVTVPSSSLGTQTYICNVNHKPSNTKVDKKV[letters of human IgG1 Fc with changes not shown]
light: DVVLTQTPPPLSVAIGQSVSISCKSSQSLVHTDGKTYLHWLLQSPGQSPKLLIYQVSNLGSGVPDRFSGTGSQKDFTLKISRVEAEDLGVYYCVQATHFPLTFGIGTKLELQRTVAAPSVFIFPPSDEQLKSGTASVVCLLNNFYPREAKVQWKVDNALQSGNSQESVTEQDSKDSTYSLSSTLTLSKADYEKHKVYACEVTHQGLSSPVTKSFNRGEC
High MFI ([1]; Assay #1, 1 μg/ml IgA (A594)): 240.3 | High MFI ([1]; Assay #2, 1 μg/ml IgA (A594)): 198.3 | High MFI ([1]; Assay #3, 1 μg/ml IgA (A594)): 196.2 | effect on degradation of exogenous dg-IgA (exogenous dg-IgA): did not affect the degradation of exogenous dg-IgA | High MFI [2, 3]: 429.9 | Z prime [2, 3]: −1.43 | High MFI [2, 4]: 444.1 | Z prime [2, 4]: −1.57 | High MFI [2, 5]: 453.6 | Z prime [2, 5]: −1.86
